Consider 17 substances from patent publication US11155596B2, “Polypeptide” (AFFIBODY AB, priority 2016, dated 2021).

Like-named read-outs stand apart in the source and are kept apart here.

As a reminder, the Kd is the free concentration of one partner at which half of the binding sites on the other are occupied at equilibrium, for simple one-to-one binding.

Data set [1] concerns the target T1, hPD-L1 binding to hPD-1 (Homo sapiens, UniProt Q9NZQ7).
T1 construct: 1086-PD-050 (hPD-1)
Kind of data set: AlphaLISA blocking assay (Example 7). The following applies: His6-tagged Z variants 250 nM to 4 pM; 8 nM biotinylated hPD-L1; read-out: IC50 AlphaLISA (M), blocking the PD-1/PD-L1 interaction. The procedure:
AlphaLISA blocking assay: The potential of Z variants to inhibit binding of PD-L1 to PD-1 was analyzed by AlphaLISA and recordings in an EnSpire multiplate reader 2300 (Perkin Elmer). hPD-1 (human PD-1 Fc-chimera; R&D Systems, cat. no. 1086-PD-050) was immobilized on AlphaLISA Acceptor beads (Perkin Elmer, cat. no. 6772002) according to the manufacturer's recommendations. […] Finally, streptavidin coated Donor beads (Perkin Elmer, cat. no. 6772002) were added to a final concentration of 40 μg/ml and incubated for 30 min. All incubations were performed at RT in the dark. The plate was analyzed in the EnSpire instrument and the IC50 values were calculated using GraphPad Prism 5.
Exception 2: hPD-1-coated Acceptor beads were added to a final concentration of 10 μg/ml and incubated for 50 min.
A general note: Bead proximity is the source of the signal in Alpha formats.

Data set [2] is described as follows: Circular dichroism (CD) spectroscopy, variable temperature measurement. The following applies: His6-tagged Z variants in PBS; VTM to 80° C. The class given is physicochemical. The procedure: Circular dichroism (CD) spectroscopy analysis: Two purified Z variants with a C-terminal cysteine, Z15168-Cys (SEQ ID NO:809) and Z15169-Cys (SEQ ID NO:810), were diluted to 0.5 mg/ml in 20 mM HEPES, 1 mM EDTA, pH 7.2. For each diluted Z variant, a CD spectrum at 250-195 nm was obtained at 20° C. In addition, a variable temperature measurement (VTM) was performed to determine the melting temperature (Tm). In the VTM, the absorbance was measured at 221 nm while the temperature was raised from 20 to 90° C., with a temperature slope of 5° C./min. A new CD spectrum was obtained at 20° C. after the heating procedure in order to study the refolding ability of the Z variants. The CD measurements were performed on a Jasco J-810 spectropolarimeter (Jasco Scandinavia AB) using a cell with an optical path length of 1 mm.
Circular dichroism (CD) spectroscopy analysis: A subset of the purified Hiss-tagged Z variants were analyzed by CD spectroscopy as described in Example 3, but with the exceptions that the analysis buffer was PBS and that the temperature was raised to 80° C. in the VTM.

In data set [3] the test system is RhPD-L1. Kind of data set: Biacore kinetic analysis of maturated Z variants, RhPD-L1. The class given is binding, rhesus monkey. The procedure: (§1) hPD-L1, hPD-L2, hB7-H3, hB7-H4 and mPD-L1 were immobilized in separate flow cells on the carboxylated dextran layer of different CM5 chip surfaces (GE Healthcare, cat. no. BR100012). The immobilization was performed using amine coupling chemistry according to the manufacturer's protocol and using HBS-EP as running buffer (0.01 M HEPES pH 7.4, 0.15 M NaCl, 3 mM EDTA, 0.005% v/v Surfactant P20, GE Healthcare, cat. no. BR100188). […] One flow cell surface on each chip was activated and deactivated for use as blank during analyte injections. In the kinetic experiment, HBS-EP was used as running buffer and the flow rate was 50 μl/min. The analytes, i.e. the Z variants, were each diluted in HBS-EP buffer within a concentration range of 1000 to 0.01 nM and injected for 5 min, followed by dissociation in running buffer for 15-25 min. After dissociation, the surfaces were regenerated with one or two injections of 0.1% SDS. Kinetic constants were calculated from the sensorgrams using the Langmuir 1:1 model of BiaEvaluation software 4.1 (GE Healthcare).
(§2) Biacore kinetic and specificity analysis: Kinetic constants (ka and kd) and affinities (KD) for human PD-L1 and rhesus monkey PD-L1 (RhPD-L1; rhesus PD-L1/Fc Chimera, Sino Biological Inc., cat. no. 90251-C02H) were determined for 24 matured Hiss-tagged Z variants (specified in Example 6). The Z variants were also tested for binding against the sequence-related proteins hPD-L2, hB7-H3 and hB7-H4. The Biacore analyses were performed essentially as described in Example 3, however a flow rate of 30 μl/min was used. […] In a first binding kinetic analysis, the 24 Z variants were injected at concentrations of 5 and 50 nM over chips immobilized with hPD-L1 and RhPD-L1, respectively. […] In the specificity test, i.e. the binding analysis against hPD-L2, hB7-H3 and hB7-H4, the 24 Z variants were injected at a concentration of 500 nM.

The target in data set [4] is hPD-L1 (Homo sapiens, UniProt Q9NZQ7). Kind of data set: Biacore kinetic analysis of maturated Z variants, hPD-L1. The class given is binding. As for the experimental part: as §1, §2
Sequence of hPD-L1 (Q9NZQ7 19-290): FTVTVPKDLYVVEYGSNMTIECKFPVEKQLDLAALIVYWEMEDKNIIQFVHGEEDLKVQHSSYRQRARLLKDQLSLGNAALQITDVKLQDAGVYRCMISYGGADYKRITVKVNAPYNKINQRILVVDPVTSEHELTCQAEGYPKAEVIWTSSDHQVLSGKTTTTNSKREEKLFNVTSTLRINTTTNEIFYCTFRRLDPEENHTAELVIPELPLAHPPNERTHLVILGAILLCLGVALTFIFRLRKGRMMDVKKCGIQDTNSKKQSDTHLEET
In general terms: SPR reads the build-up and loss of mass on a sensor chip optically.

Setting [5] is: His6-tagged Z variants at 135, 45, 15, 5 and 1.67 nM.
Setting [6] is: His6-tagged Z variants at 135, 45, 15, 5 and 1.67 nM, read-out: hPD-L1 KD.
The mark [7] stands for this setting: ranking experiment, His6-tagged Z variants at 5 and 50 nM, 1:1 model, read-out: hPD-L1 KD (M), approximate affinity constant.
[8] abbreviates: His6-tagged Z variants at 135, 45, 15, 5 and 1.67 nM, read-out: RhPD-L1 KD.
The mark [9] stands for this setting: ranking experiment, His6-tagged Z variants at 5 and 50 nM, 1:1 model, read-out: RhPD-L1 KD (M), approximate affinity constant.

T1 sequence (Q9NZQ7 19-239 limits assumed): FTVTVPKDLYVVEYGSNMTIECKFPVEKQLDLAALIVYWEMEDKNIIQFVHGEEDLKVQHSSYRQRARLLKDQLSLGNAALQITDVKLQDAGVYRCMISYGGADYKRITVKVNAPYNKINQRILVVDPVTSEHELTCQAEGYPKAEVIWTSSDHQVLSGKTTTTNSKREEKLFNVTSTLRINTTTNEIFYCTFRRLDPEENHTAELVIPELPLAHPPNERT

In the case of “Z17746: maturated PD-L1 binding Z variant (VDAKYAKERNEAAYEILYLPNLTNAQKWAFIWKLDDDPSQSSELLSEAKKLNDSQAPK; Engineered PD-L1 binding polypeptide)”, the IC50 in data set [1] was determined as 1.3e-09 M. Also, the “Tm (° C.)” value in data set [2] came to 59 °C.
Regarding “Z17748: maturated PD-L1 binding Z variant (VDAKYAKERNAAAYEILYLPNLTQSQKWAFIWKLDDDPSQSSELLSEAKKLNDSQAPK; Engineered PD-L1 binding polypeptide)”, the IC50 in data set [1] turned out to be 1.1e-09 M. Further, in data set [3] (setting [5]), the “RhPD-L1 ka” value is 1.8e+06 M⁻¹ s⁻¹ and the “RhPD-L1 kd” value amounted to 0.00051 s⁻¹. Moreover, the “Tm (° C.)” value in data set [2] was found to be 63 °C. Also, in data set [4] (setting [5]), the “hPD-L1 ka” value worked out at 1.7e+06 M⁻¹ s⁻¹ and the “hPD-L1 kd” value was determined as 0.00057 s⁻¹. In addition, the Kd in data set [4] (setting [6]) was determined as 3.4e-10 M. Moreover, in data set [4] (setting [7]), the Kd amounted to 4.5e-10 M.
For the substance “Z17756: maturated PD-L1 binding Z variant (VDAKYAKERNAAAFEILYLPNLTNAQKWAFIWKLDDDPSQSSELLSEAKKLNDSQAPK; Engineered PD-L1 binding polypeptide)”, in data set [1], the IC50 worked out at 1.5e-09 M. In addition, the dissociation constant (Kd) worked out at 1.7e-10 M in data set [3] (setting [8]) and 2.1e-09 M in data set [3] (setting [9]). Besides, in data set [2], the “Tm (° C.)” value came out at 63 °C.
In the case of “Z17825: maturated PD-L1 binding Z variant (VDAKYAKERNLAAYEILYLPNLTNAQKWAFIWKLDDDPSQSSELLSEAKKLNDSQAPK; Engineered PD-L1 binding polypeptide)”, the IC50 in data set [1] is 1.6e-10 M. Moreover, the “RhPD-L1 ka” value in data set [3] (setting [5]) amounted to 1.9e+06 M⁻¹ s⁻¹. Also, in data set [3] (setting [5]), the “RhPD-L1 kd” value was found to be 0.00039 s⁻¹. The Kd in data set [3] (setting [8]) stood at 2.1e-10 M; in data set [3] (setting [9]), 1.2e-09 M; in data set [4] (setting [6]), 2.4e-10 M; in data set [4] (setting [7]), 2.5e-10 M. Also, the “Tm (° C.)” value in data set [2] turned out to be 60 °C. In addition, the “hPD-L1 ka” value in data set [4] (setting [5]) turned out to be 2e+06 M⁻¹ s⁻¹. The “hPD-L1 kd” value in data set [4] (setting [5]) stood at 0.00047 s⁻¹.
Take “Z17911: maturated PD-L1 binding Z variant (VDAKYAKERNNAAYEILYLPNLTNAQKWAFIWKLDDDPSQSSELLSEAKKLNDSQAPK; Engineered PD-L1 binding polypeptide)”: the IC50 in data set [1] was 5.7e-10 M. Also, the “RhPD-L1 ka” value in data set [3] (setting [5]) was found to be 2.1e+06 M⁻¹ s⁻¹. The “RhPD-L1 kd” value in data set [3] (setting [5]) was found to be 0.00042 s⁻¹. For the same substance, the Kd came to 2e-10 M in data set [3] (setting [8]), 2.2e-09 M in data set [3] (setting [9]), 2.1e-10 M in data set [4] (setting [6]) and 3.6e-10 M in data set [4] (setting [7]). The “Tm (° C.)” value in data set [2] was 59 °C. Besides, the “hPD-L1 ka” value in data set [4] (setting [5]) was determined as 2.3e+06 M⁻¹ s⁻¹. In data set [4] (setting [5]), the “hPD-L1 kd” value was 0.00049 s⁻¹.
On to “Z17972: maturated PD-L1 binding Z variant (VDAKYAKERNIAAYEILYLPNLTNNQKWAFIWKLDDDPSQSSELLSEAKKLNDSQAPK; Engineered PD-L1 binding polypeptide)”, for which the Kd in data set [4] (setting [7]) stood at 5.4e-10 M.
Turning to “Z18022: maturated PD-L1 binding Z variant (VDAKYAKERNSAAYEILYLPNLTNQQKWAFIWKLDDDPSQSSELLSEAKKLNDSQAPK; Engineered PD-L1 binding polypeptide)”, in data set [1], the IC50 stood at 3.1e-10 M. Further, the “Tm (° C.)” value in data set [2] came out at 59 °C.
For the substance “Z18039: maturated PD-L1 binding Z variant (VDAKYAKERNEAAYEILYLPNLTQSQIWAFIWKLDDDPSQSSELLSEAKKLNDSQAPK; Engineered PD-L1 binding polypeptide)”, the Kd in data set [3] (setting [9]) came to 1.9e-09 M; in data set [4] (setting [7]), 6.3e-10 M. Besides, the “Tm (° C.)” value in data set [2] is 55 °C.
Turning to “Z18052: maturated PD-L1 binding Z variant (VDAKYAKERNIAAYEILYLPNLTQSQIWAFIWKLDDDPSQSSELLSEAKKLNDSQAPK; Engineered PD-L1 binding polypeptide)”, the IC50 in data set [1] is 3.4e-10 M. Also, the Kd came out at 1.2e-09 M in data set [3] (setting [9]) and 4.5e-10 M in data set [4] (setting [7]).
For “Z18054: maturated PD-L1 binding Z variant (VDAKYAKERNDAAFEILYLPNLTQAQIWAFIWKLDDDPSQSSELLSEAKKLNDSQAPK; Engineered PD-L1 binding polypeptide)”, the IC50 in data set [1] is 1.1e-09 M. Besides, the Kd in data set [3] (setting [9]) was determined as 1.2e-09 M.
For “Z18066: maturated PD-L1 binding Z variant (VDAKYAKERNEAAYEILYLPNLTNSQKWAFIWKLDDDPSQSSELLSEAKKLNDSQAPK; Engineered PD-L1 binding polypeptide)”, the IC50 in data set [1] was 8.3e-10 M. Moreover, the values for the Kd in data set [3] (setting [8]) and in data set [3] (setting [9]) were 3.5e-10 M and 2.1e-09 M, respectively. Besides, in data set [2], the “Tm (° C.)” value was 58 °C.
As to “Z18070: maturated PD-L1 binding Z variant (VDAKYAKERNAAAYEILYLPNLTNHQKWAFIWKLDDDPSQSSELLSEAKKLNDSQAPK; Engineered PD-L1 binding polypeptide)”, in data set [1], the IC50 was 8.6e-10 M. In addition, in data set [2], the “Tm (° C.)” value was found to be 60 °C.
Take “Z18101: maturated PD-L1 binding Z variant (VDAKYAKERNSAAYEILYLPNLTNLQKWAFIWKLDDDPSQSSELLSEAKKLNDSQAPK; Engineered PD-L1 binding polypeptide)”: the IC50 in data set [1] amounted to 6.2e-10 M. In addition, the Kd in data set [4] (setting [7]) was determined as 9.3e-10 M.
For “Z18129: maturated PD-L1 binding Z variant (VDAKYAKERNSAAYEILYLPNLTQAQKWAFIWKLDDDPSQSSELLSEAKKLNDSQAPK; Engineered PD-L1 binding polypeptide)”, the IC50 in data set [1] turned out to be 6e-10 M. Further, in data set [3] (setting [9]), the Kd was 1.2e-09 M. Further, in data set [2], the “Tm (° C.)” value came out at 63 °C.
Consider “Z18149: maturated PD-L1 binding Z variant (VDAKYAKERNNAAYEILYLPNLTQAQKWAFIWKLDDDPSQSSELLSEAKKLNDSQAPK; Engineered PD-L1 binding polypeptide)”, for which the Kd in data set [3] (setting [9]) was 9.6e-10 M; in data set [4] (setting [7]), 5.3e-10 M.
On to “Z18353: maturated PD-L1 binding Z variant (VDAKYAKERNEAAYEILYLPNLTQAQKWAFIWKLDDDPSQSSELLSEAKKLNDSQAPK; Engineered PD-L1 binding polypeptide)”, for which the IC50 in data set [1] was 7.2e-10 M. For the same substance, the Kd in data set [3] (setting [9]) worked out at 1.6e-09 M; in data set [4] (setting [7]) it was 4.6e-10 M.
As to “Z18418: maturated PD-L1 binding Z variant (VDAKYAKERNEAAYEILHLPNLTSYQHWAFIWKLDDDPSQSSELLSEAKKLNDSQAPK; Engineered PD-L1 binding polypeptide)”, the IC50 in data set [1] was determined as 5.7e-10 M. Also, the Kd in data set [3] (setting [9]) is 4.1e-09 M; in data set [4] (setting [7]) it was 1.9e-09 M.
